{
  "source": "PubChem BioAssay AID1030",
  "about": "(National Center for Advancing Translational Sciences (NCATS), 2008)",
  "note": "Several values for one entry are separate records, joined by “and”; a condition that tells them apart may be missing. Equal entries are not always repeated. Screen size: about 220,000 compounds; about 16,000 (7.3%) were called active. This list was built around the results that the source calls inconclusive (neither active nor inactive); the mix of calls is not that of the screen. Calls follow the shape of the dose curve; as a rule, active = well fitted inhibition curve with a large enough effect (not every such curve was filed as active); inconclusive = small, poorly fitted or top-dose-only effect, or another doubt; inactive = no such curve, though single readings can be large or run the other way. Potencies of inconclusive entries are left out as doubtful fits. Potency is read from the fitted curve at half-maximal effect; tags tell the direction and shape of the fitted curve.",
  "data": [
    {"molecular_target": "Aldehyde dehydrogenase 1A1 (Homo sapiens) (UniProt P00352)", "sequence (P00352 whole entry, looked up)": "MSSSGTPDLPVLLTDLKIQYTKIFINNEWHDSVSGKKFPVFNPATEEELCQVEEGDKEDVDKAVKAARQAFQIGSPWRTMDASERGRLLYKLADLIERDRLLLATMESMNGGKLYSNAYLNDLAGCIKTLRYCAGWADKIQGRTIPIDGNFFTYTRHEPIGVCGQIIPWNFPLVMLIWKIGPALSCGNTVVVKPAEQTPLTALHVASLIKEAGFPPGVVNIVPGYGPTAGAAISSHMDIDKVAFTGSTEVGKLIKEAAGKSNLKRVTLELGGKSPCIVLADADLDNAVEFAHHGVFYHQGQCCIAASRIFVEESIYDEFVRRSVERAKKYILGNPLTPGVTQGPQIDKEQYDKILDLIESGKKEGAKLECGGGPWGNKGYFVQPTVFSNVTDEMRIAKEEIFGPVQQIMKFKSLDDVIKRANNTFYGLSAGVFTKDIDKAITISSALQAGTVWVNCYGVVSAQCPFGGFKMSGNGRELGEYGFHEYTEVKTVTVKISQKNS", "test": "qHTS Assay for Inhibitors of Aldehyde Dehydrogenase 1 (ALDH1A1);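 as to activity, negative = inhibition: plate controls were no enzyme wells and a reference inhibitor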", "conditions": "Purified ALDH1A1, NADH fluorescence, propionaldehyde substrate; series mostly up to 75.3 µM", "values": [
      {"smiles": "CCCCCn1c(NC(=O)c2ccco2)c(C(=O)OCC)c2nc3ccccc3nc21", "Potency": "inconclusive [inhibitor, partial curve]"},
      {"smiles": "C=CC(=O)OC", "Potency": "inactive"},
      {"smiles": "O=C1C2CC=CCC2C(=O)N1SC(Cl)(Cl)Cl", "note": "(configuration not stated)", "Potency": "active: 562 nM and active: 398 nM"},
      {"smiles": "O=C(Oc1ccccc1)N1CCC2(CC1)CN(Cc1ccncc1)C2", "Potency": "inconclusive [inhibitor, partial curve]"},
      {"smiles": "Cc1ccc(/C=C2/C(=O)NC(=O)N(CCc3ccc(F)cc3)C2=O)o1", "Potency": "active: 5.62 µM"},
      {"smiles": "O=C1NC(=O)N(c2ccc3c(c2)OCO3)C(=O)/C1=C/c1ccsc1", "Potency": "inconclusive [inhibitor, partial curve]"},
      {"smiles": "O=C(c1ccc(CNS(=O)(=O)c2ccc(Br)cc2)cc1)N1CCC2(CC1)OCCO2", "Potency": "inactive"},
      {"smiles": "COc1ccccc1CCNC1CCC(C)CC1", "note": "(configuration not stated)", "Potency": "inconclusive [inhibitor, single point]"},
      {"smiles": "Cc1ccc(P(=S)(c2ccc(C)o2)N2CCOCC2)o1", "Potency": "inconclusive [inhibitor, single point]"},
      {"smiles": "O=[N+]([O-])c1cccc(CN2CCN(Cc3ccc(Cl)cc3)CC2)c1", "Potency": "inconclusive [inhibitor, partial curve]"},
      {"smiles": "CCCCC[CH2][Hg][S]C1=C2N=CNC2NC(N)=N1", "note": "(configuration not stated)", "Potency": "active: 0.316 µM"},
      {"smiles": "O=C1NCCN2CCCC12", "note": "(configuration not stated)", "Potency": "inconclusive [inhibitor, single point]"},
      {"smiles": "CCc1c(C)c2ccc(OCC(N)=O)cc2oc1=O", "Potency": "inconclusive [inhibitor, partial curve]"},
      {"smiles": "CNC(=O)Oc1ccc(-c2cn3cc(Cl)ccc3n2)cc1", "Potency": "inconclusive [inhibitor, single point]"},
      {"smiles": "Brc1ccccc1-c1ccccc1", "Potency": "inconclusive [inhibitor, single point]"},
      {"smiles": "Cc1ccc(S(=O)(=O)O[C@H]2CN3CCC2CC3)cc1", "activity, negative = inhibition": "inactive: 4.24% [at 13.5 µM]"},
      {"smiles": "CSc1nc(N)c(N=Nc2ccc([As](=O)(O)O)cc2)c(=O)[nH]1", "Potency": "active: 8.91 µM"},
      {"smiles": "O=C(CCl)c1ccccc1", "Potency": "active: 0.0794 µM"},
      {"smiles": "CC1=CC(=O)NP(=O)(Oc2ccc3ccccc3c2)N1", "note": "(configuration not stated)", "Potency": "inconclusive [inhibitor, single point]"},
      {"smiles": "Cc1ccc(N2C(=O)NC(=O)/C(=C\\c3cc(C)n(-c4sc5c(c4C#N)CCCC5)c3C)C2=O)cc1", "Potency": "active: 0.794 µM"},
      {"smiles": "CCCN(C/C=C\\I)[C@@H]1CCc2ccc(O)cc2C1", "Potency": "inactive"},
      {"smiles": "CN(C)c1ccc2c(c1)N=C(c1ccco1)OP2(=S)N1CCOCC1", "note": "(configuration not stated)", "Potency": "active: 8.91 µM"},
      {"smiles": "Cc1cc(OCC(=O)O)c2c3c(c(=O)oc2c1)CCCC3", "Potency": "inconclusive [inhibitor, partial curve]"},
      {"smiles": "O=C1NC(=O)C(=Cc2ccc(Oc3ccc([N+](=O)[O-])cc3)cc2)C(=O)N1", "Potency": "inconclusive [inhibitor, single point]"},
      {"smiles": "CC/C=C\\C/C=C\\C/C=C\\C/C=C\\C/C=C\\CCCC(=O)NCCCC(=O)O", "Potency": "inactive"},
      {"smiles": "Cc1ccc2c(c1)CNc1ccccc1O2", "Potency": "inactive"},
      {"smiles": "CN(C)C(=O)Oc1cccc(-c2cn3cc(Cl)ccc3n2)c1", "Potency": "inconclusive [inhibitor, single point]"},
      {"smiles": "COc1cc(-n2c(=S)[nH]c3ccc(C)cc3c2=O)c(Cl)cc1Cl", "Potency": "inactive"},
      {"smiles": "COc1ccc(-c2cc(-c3ccccc3)[n+](C)c(-c3ccccc3)c2)cc1", "Potency": "inconclusive [inhibitor, single point]"},
      {"smiles": "NC(=O)c1sc2nc3c(c(-c4cccs4)c2c1N)CCCC3", "Potency": "inconclusive [inhibitor, full curve]"},
      {"smiles": "c1ccc([C@H]2CNCc3ccccc32)cc1", "Potency": "inactive"},
      {"smiles": "CC(=O)[C@H]1CC[C@H]2C3CC[C@H]4C[C@H](O)CC[C@]4(C)C3CC[C@]12C", "note": "(some centres not stated)", "Potency": "inactive"},
      {"smiles": "CCN(CC)c1nc(N)nc(NS(=O)(=O)c2ccc(Cl)cc2)n1", "Potency": "inconclusive [inhibitor, partial curve]"},
      {"smiles": "COC1=CC(=O)O[C@@H](/C=C/c2ccccc2)C1", "Potency": "active: 12.6 µM"},
      {"smiles": "CN(C)C(=O)Nc1cccc(C(F)(F)F)c1", "Potency": "inactive"},
      {"smiles": "CN1CCN(c2ccc(S(C)(=O)=O)cc2[N+](=O)[O-])CC1", "Potency": "inactive"},
      {"smiles": "CN1C2CCC1CC(OC(c1ccc(F)cc1)c1ccc(F)cc1)C2", "note": "(configuration not stated)", "Potency": "inactive"},
      {"smiles": "Cc1ccc2c(c1N)C(=O)c1ccccc1C2=O", "Potency": "inconclusive [inhibitor, full curve]"},
      {"smiles": "OC1(c2ccc(F)cc2)CC2CCC(C1)N2Cc1nnnn1C1CCCCC1", "note": "(configuration not stated)", "Potency": "active: 0.631 µM"},
      {"smiles": "O=C(Cl)OCc1ccccc1", "Potency": "inconclusive [inhibitor, single point]"},
      {"smiles": "COc1ccc(OC)c(N=Cc2c(O)n(Cc3ccccc3)c(=S)[nH]c2=O)c1", "Potency": "inconclusive [inhibitor, single point]"},
      {"smiles": "N#CCCn1cc(C(=O)O)c(-c2cccc([N+](=O)[O-])c2)n1", "Potency": "inactive"},
      {"smiles": "COc1ccc(C(=O)C23CN4CN(CN(C4)C2)C3)cc1", "Potency": "inactive"},
      {"smiles": "COc1ccc(-c2cc(=NCCCCCC(=O)O)c3cc(C)ccc3o2)cc1", "Potency": "inconclusive [inhibitor, partial curve]"},
      {"smiles": "Cc1ccnc(-n2c(C)cc(/C=C3\\C(=O)NC(=S)N(C)C3=O)c2C)c1", "Potency": "inconclusive [inhibitor, single point]"},
      {"smiles": "O=C(C1CCCN(S(=O)(=O)c2cccc3nsnc23)C1)N1CCC2(CC1)OCCO2", "note": "(configuration not stated)", "Potency": "inconclusive [inhibitor, single point]"},
      {"smiles": "COc1ccc(OC)c(/C=N/OC(=O)Nc2ccc(Cl)cc2)c1", "Potency": "inconclusive [inhibitor, single point]"},
      {"smiles": "CN(Cc1ccccc1)C(=O)Cn1c(=O)oc2cc(S(=O)(=O)NCc3ccccc3)ccc21", "Potency": "inconclusive [inhibitor, single point]"},
      {"smiles": "CCOc1ccc(-c2nc3ccc(-c4nc5ccc(N6CCN(C)CC6)cc5[nH]4)cc3[nH]2)cc1", "Potency": "inconclusive [inhibitor, partial curve]"},
      {"smiles": "O=C1C2CCCN2C(c2cccc(Cl)c2)N1c1ccccn1", "note": "(configuration not stated)", "Potency": "inconclusive [inhibitor, partial curve]"},
      {"smiles": "CC(C)c1cc2c(c(O)c1O)[C@@]1(C(=O)O)CCCC(C)(C)[C@@H]1CC2", "Potency": "active: 14.1 µM"},
      {"smiles": "Cc1ccc(C)c(N)c1", "Potency": "inconclusive [inhibitor, single point]"},
      {"smiles": "CC(=O)OC1=CC2=CC[C@H]3[C@H]4CCC(=O)[C@@]4(C)CC(=O)[C@]3(S)[C@]2(C)CC1", "Potency": "active: 4.47 µM"},
      {"smiles": "CCC(=NCCCn1ccnc1)c1c(O)n(Cc2ccccc2)c(=O)[nH]c1=O", "Potency": "inconclusive [inhibitor, partial curve]"},
      {"smiles": "CCCCCCC(C)OC(=O)COc1ccc(Cl)cc1Cl", "note": "(configuration not stated)", "Potency": "inactive"},
      {"smiles": "CCOC(=O)c1c(N)n(Cc2ccco2)c2nc3ccccc3nc12", "Potency": "inconclusive [inhibitor, partial curve]"},
      {"smiles": "CCC(C)NC(=O)c1c(N)n(CCCOC)c2nc3ccccc3nc12", "note": "(configuration not stated)", "Potency": "inconclusive [inhibitor, partial curve]"},
      {"smiles": "c1ccc(N2CCC3(CCNCC3)CC2)nc1", "Potency": "inconclusive [inhibitor, partial curve]"},
      {"smiles": "COc1ccc(C2=NCC(=O)N(CC(=O)NCc3ccco3)c3sc4c(c32)CCCC4)cc1", "Potency": "active: 15.8 µM"},
      {"smiles": "COc1ccc(-c2cc(=Nc3cccc(C(=O)O)c3)c3cc(C)ccc3o2)cc1", "Potency": "inconclusive [inhibitor, partial curve]"},
      {"smiles": "O=CC=O", "Potency": "inconclusive [inhibitor, single point]"},
      {"smiles": "O=C(/C=C/C=C/c1ccccc1)CC1(O)C(=O)Nc2ccccc21", "note": "(configuration not stated)", "Potency": "inconclusive [inhibitor, single point]"},
      {"smiles": "O=C(O)C[O][Sb][O]CC(=O)O", "activity, negative = inhibition": "inactive: 11.5% [at 13.5 µM]"},
      {"smiles": "Cc1nn(Cc2ccccc2)c(C)c1C(=O)OCC(=O)Nc1ccccc1SCC#N", "Potency": "active: 25.1 µM"},
      {"smiles": "CCC(C)N1CCN(C(=O)Cc2ccccc2)CC1", "note": "(configuration not stated)", "Potency": "inactive"},
      {"smiles": "CN(C)C(=O)Oc1noc2cc(Cl)ccc12", "Potency": "inconclusive [inhibitor, single point]"},
      {"smiles": "Cc1ccc(NC(=O)COC(=O)/C=C/c2ccco2)cc1S(=O)(=O)N(C)C", "Potency": "inconclusive [inhibitor, single point]"},
      {"smiles": "CC(=O)N1CCC2(CC1)CC(=O)c1cc(OCC(=O)N3CCN(C)CC3)ccc1O2", "Potency": "inconclusive [inhibitor, partial curve]"},
      {"smiles": "Nc1ccc(C2(c3ccc(N)cc3)CCCCC2)cc1", "Potency": "active: 14.1 µM"},
      {"smiles": "Cc1nc2ccc(NC(=O)c3ccc(Cl)s3)cc2s1", "Potency": "inconclusive [inhibitor, single point]"},
      {"smiles": "CN1CCN(C(=O)Cc2nc3ccccc3[nH]2)CC1", "Potency": "inactive"},
      {"smiles": "CC1=NN(c2ccccc2)C(=O)C1/C=C1/C(=O)NC(=O)N(c2cc(C)cc(C)c2)C1=O", "note": "(configuration not stated)", "Potency": "inactive"},
      {"smiles": "Cc1c(C(=O)N2CCC3(CC2)OCCO3)sc2ncnc(N(C)c3ccccc3)c12", "Potency": "inconclusive [inhibitor, single point]"},
      {"smiles": "COC(=O)C(O)(c1ccc(N=Cc2ccccc2O)c(C)c1)C(F)(F)F", "note": "(configuration not stated)", "Potency": "inactive"},
      {"smiles": "CN1CCc2nc(SCc3ccccc3Br)c(C#N)cc2C1", "Potency": "inconclusive [inhibitor, partial curve]"},
      {"smiles": "Nn1c(COc2ccc(Cl)cc2)n[nH]c1=S", "Potency": "active: 25.1 µM"},
      {"smiles": "O=C(O)c1cc(O)c(O)c(O)c1", "Potency": "active: 8.91 µM and active: 2 µM"}
    ]}
  ]
}
